These results are taken from the supplement of paper PMC10126150.

Sequences with one replicate were seen in a single cluster, so their values are uncertain.

The subject of this data set is ATP. The data set is described as follows: switch fluorescence ratio, 500 uM ATP over buffer (Cy3 cluster intensity, sum of 5 cycles each) (fold (ratio)); higher = stronger signal-on switching upon ATP binding; sequences stand for … in TCGTCGGCAGCGTCAGATGTGTATAAGAGACAGTTTTTTTTTTTTTTTTTTTTTTTTT…TC. The note with it: aptamer strand: ATP DNA aptamer (quencher-CACCTGGGGGAGTATTGCGGAGGAAGG + anchor), 100 nM annealed; ATP concentration: 500 uM; one replicate. The procedure, abridged: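 After annealing to 100 nM quencher-labelled ATP aptamer, Cy3-labelled switching-strand clusters on a modified Illumina MiSeq flow-cell were imaged in selection buffer. A second image followed after 15 min with 500 uM ATP at 22 °C, and five such buffer/ATP cycles were done, each separated by NaOH stripping and re-annealing. The fluorescence ratio, averaged per switch-domain sequence, is summed target-cycle over summed buffer-cycle Cy3 intensity per cluster, with clusters outside 100-1000 RFU excluded.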
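Further: ATP exposure 15 min at 22 °C before imaging.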

Regarding CAGCGTTACA, the switch fluorescence ratio is 1.02.
Consider ACGAAACAG, for which the switch fluorescence ratio stood at 1.11.
In the case of TACAAAGTGG it was 1.02; in that of TCTAAGTGTG, 1.
With AGACGACGTC, the switch fluorescence ratio came out at 0.993.
For the sequence AGGGCATC, the switch fluorescence ratio worked out at 1.
Consider AATGATTTTT, for which the switch fluorescence ratio turned out to be 0.995.
For AGCGCAACGC, the switch fluorescence ratio came out at 1.09.
The result for GTAATAAGAA reads 0.984; that for GCCCTTACTA, 1.11.
For the sequence GTTTTAGACC, the switch fluorescence ratio came to 1.03.
Regarding TGCTAGCCCC, the switch fluorescence ratio stood at 1.02.
Regarding CGTTATGGTT, the switch fluorescence ratio was 0.963.
On to TGTAAATAGC, for which the switch fluorescence ratio is 1.02.
Consider AACCTGGATC, for which the switch fluorescence ratio was found to be 2.43.
For ACGGAGTGGT, the switch fluorescence ratio is 1.02.
As for CAAGTAGCAA, the switch fluorescence ratio came out at 1.94.
The result for ATATACGGTT reads 1.
Regarding TGCTGTACTT, the switch fluorescence ratio was found to be 1.03.
Consider GAGTTGCCGG, for which the switch fluorescence ratio was found to be 1.05.
As for GAAGCAGAAA, the switch fluorescence ratio is 1.16.
Turning to CATTTGACTG, the switch fluorescence ratio turned out to be 0.992.
Take AGATATACCT: the switch fluorescence ratio is 1.28.
The result for GTTCCGCCCT reads 1.23.
On to CGTTACATGA, for which the switch fluorescence ratio was determined as 1.02.
Turning to CCAACAATCC, the switch fluorescence ratio came out at 1.55.
As to TGGAAATATG, the switch fluorescence ratio was found to be 1.06.
For the sequence GGGGCCCGA, the switch fluorescence ratio is 0.986.
For the sequence TTCTTATCAA, the switch fluorescence ratio came out at 1.02.
In the case of TAAAAGTAAG it was 0.984; in that of ATCTACATGT, 1.01.
As for TTTTGGAACA, the switch fluorescence ratio worked out at 0.996.
On to TTCGGTGTGA, for which the switch fluorescence ratio was 1.03.
The result for CTTAGCTTCG reads 1.02; that for GGGGTCACCA, 0.986.
For the sequence GGAAGAAGGG, the switch fluorescence ratio stood at 0.931.
Consider AGAAGAGCAC, for which the switch fluorescence ratio was 1.03.
On to AGAAGGTCAG, for which the switch fluorescence ratio worked out at 1.03.
Take ACACTGGCGA: the switch fluorescence ratio was 0.919.
Consider ATACAGTAAA, for which the switch fluorescence ratio is 1.05.
In the case of TGGGACAGC it was 1; in that of GGTTGCTTGG, 0.966.
In the case of GTTGCATAAA it was 0.983; in that of GGCCAGCTGT, 0.962; in that of TTCCGTATAG, 1.62.
GCGGCGTGGA: the switch fluorescence ratio turned out to be 1.01.
For ACCAGTGACC, the switch fluorescence ratio was determined as 1.04.
As for GGCATAATCA, the switch fluorescence ratio was 0.992.
For GGGATCGGCT, the switch fluorescence ratio was 1.1.
The result for CCAGGTCGAA reads 1.21; that for TAGACGTGAC, 1.23.
With GTCTGGGTAT, the switch fluorescence ratio worked out at 0.968.
The result for ATGGTTGCGT reads 0.967; that for CGTGCCTGTA, 0.93.
The result for CTGGCAGTTG reads 1.01; that for GAACGCGCAG, 1.02.
With TATAGATCCA, the switch fluorescence ratio was found to be 1.01.
ACACCACGTG: the switch fluorescence ratio came out at 1.13.
For GAGTGCGCAT, the switch fluorescence ratio came out at 0.991.
As to ACTCTGGTGC, the switch fluorescence ratio stood at 1.11.
In the case of TCCTAGGGT, the switch fluorescence ratio was 0.967.
For GGTGGGGACC, the switch fluorescence ratio worked out at 1.03.
For GAGCGTTCGG, the switch fluorescence ratio worked out at 0.921.
In the case of CATATTTTGG it was 0.987.
In the case of TAAACACTTT it was 1.01.
In the case of TATTAGAGAT, the switch fluorescence ratio amounted to 0.988.
Consider ATGGGAAACA, for which the switch fluorescence ratio worked out at 1.02.
